Legend:
[1] = assay type: in vivo, cynomolgus monkey
Protocol: The in vivo toxicity of ADC3b was evaluated in male and female cynomolgus monkeys. Monkeys (5 M+5F/group) were dosed with ADC3b (5, 15 or 25 mg/kg Q3W, i.v. infusion).
It should be noted that in these normal tissues c-Met is not activated as no c-Met phosphorylation is observed in these tissues. Despite this extensive expression the tolerability of ADC3b is surprising. The highest non-severely toxic dose (HNSTD) for ADC3b is estimated to be 15 mg/kg/Q3 weeks. Given that many of the toxic effects of ADCs are observed in (normal) tissues expressing the target (Masson Hinrichs and Dixit, AAPS J. 2015, 17, 1055-1064), it is surprising that the c-Met targeting ADC ADC3b is so well tolerated.

[2] = system: HNXF1905 squamous cell carcinoma xenograft; test: Dose-response study, patient-derived head and neck cancer xenograft HNXF1905; assay type: in vivo, mice; settings: HNXF1905, single injection 0.3, 1, 3 or 10 mg/kg, FIG. 8A
Protocol: Dose-response studies were performed two patient-derived xenograft models: 1) LXFL1176, a large cell carcinoma derived a lymph node metastasis, and 2) HNXF1905, a primary squamous cell carcinoma from the supraorbital area. The tumor explants were grafted in B6-Ces1ctm1.1Loc.CB17 Prkdc^scid mice using the same protocol as described hereinabove. The MET gene is not amplified in either tumor; immunohistochemical staining confirmed high c-Met expression on the cell surface in the LXFL1176 model, and moderate c-Met expression in the HNXF1905 model.
The mice were dosed on the day of randomization or on the following day with a single injection of 0.3, 1, 3 or 10 mg/kg ADC3b. A vehicle and non-binding isotype control ADC were included. […] The efficacy of ADC3b in head and neck cancer PDX model HNXF1905 is shown in FIG. 8A, the efficacy in lung cancer PDX model LXFL1176 in FIG. 8B.

[3] = Pharmacokinetics in lung LXFL1176 tumor bearing Ces1c KO mice; assay type: in vivo
Protocol: (§1) Pharmacokinetic/pharmacodynamic studies were performed with anti-c-Met ADC ADC3b in tumor-bearing CES1c KO SCID mice. These mice lack exon 5 of the Ces1c gene leading to the abolishment of the function of the enzyme. Further pharmacokinetic data were obtained from a toxicology study with ADC3b in cynomolgus monkey.
(§2) Mice were dosed with ADC3b (0.3, 1, 3 or 10 mg/kg, intravenous (i.v.) bolus injection) and plasma was collected at 1, 48, 168, 336, 504 hours post dosing. Monkeys were dosed with ADC3b (5, 15 or 25 mg/kg, i.v. infusion) and plasma was collected at 1, 6, 24, 48, 96, 192, 360, 504 hours. An LC-MS/MS based assay was used to quantify total antibody, and ligand binding assays were used to quantify conjugated antibody. The conjugated antibody assay captures ADC species that contain at least one linker drug.

[4] = Pharmacokinetics in head and neck HNXF1905 tumor bearing Ces1c KO mice; assay type: in vivo
Protocol: as §1, §2

[5] = Conjugated antibody, 0.3 mg/kg i.v.
[6] = Conjugated antibody, 1 mg/kg i.v.
[7] = Conjugated antibody, 3 mg/kg i.v.
[8] = Conjugated antibody, 10 mg/kg i.v.

B1: ADC3b: mAb3b site-specifically conjugated (HC 41C) to vc-seco-DUBA, DAR 1.9 (conjugate)
heavy: QVQLVQSGAEVKKPGASVKVSCKASGYTFTDYYLNWVRQACGQGLEWMGLIFPGNDKTEYSEKFKGRVTLTTDTSISTAYMELSSLTSDDTALYYCSGGDYGGFVYWGQGTLVTVSS[sequence of human IgG1 constant region not given]
light: DIQMTQSPSSLSASVGDRVTISCGASENIYGALNWYQQQPGKAPKVLIFGATNLADGVPSRFSGSGSGTDFTLTISSLQPEDFATYYCQNVLSSPLTFGQGTKLEIKRTVAAPSVFIFPPSDEQLKSGTASVVCLLNNFYPREAKVQWKVDNALQSGNSQESVTEQDSKDSTYSLSSTLTLSKADYEKHKVYACEVTHQGLSSPVTKSFNRGEC
With B1 the toxicity profile ([1]; 4-cycle pivotal toxicity and PK study) was “remarkably mild toxicity profile”, the “highest non-severely toxic dose (HNSTD)” value ([1]; 4-cycle study, 5, 15 or 25 mg/kg Q3W i.v. infusion, estimated) was 15 mg/kg/Q3 weeks and the anti-tumor activity [2] was “dose-dependent anti-tumor activity”. For the same molecule, the AUClast [3, 5] was 355 µg·h/mL, the Cmax [3, 5] was 4960 ng/mL and the AUClast [3, 6] was 1670 µg·h/mL. For the same molecule, the “Approximate t1/2” value [3, 6] was 87.5 h, the Cmax [3, 6] was 19000 ng/mL and the AUClast [3, 7] was 5920 µg·h/mL. For the same molecule, the Cmax [3, 7] was 57400 ng/mL, the AUClast [3, 8] was 33900 µg·h/mL and the Cmax [3, 8] was 187000 ng/mL. The AUClast ([3]; Total antibody, 0.3 mg/kg i.v.) was 388 µg·h/mL, the Cmax ([3]; Total antibody, 0.3 mg/kg i.v.) was 6240 ng/mL and the AUClast ([3]; Total antibody, 1 mg/kg i.v.) was 1870 µg·h/mL. For the same molecule, the “Approximate t1/2” value ([3]; Total antibody, 1 mg/kg i.v.) was 95.5 h, the Cmax ([3]; Total antibody, 1 mg/kg i.v.) was 22900 ng/mL and the AUClast ([3]; Total antibody, 3 mg/kg i.v.) was 7130 µg·h/mL. For the same molecule, the “Approximate t1/2” value ([3]; Total antibody, 3 mg/kg i.v.) was 192 h, the Cmax ([3]; Total antibody, 3 mg/kg i.v.) was 69800 ng/mL and the AUClast ([3]; Total antibody, 10 mg/kg i.v.) was 38500 µg·h/mL. For the same molecule, the Cmax ([3]; Total antibody, 10 mg/kg i.v.) was 222000 ng/mL, the AUClast [4, 5] was 896 µg·h/mL and the “Approximate t1/2” value [4, 5] was 181 h. The Cmax [4, 5] was 4850 ng/mL, the AUClast [4, 6] was 2330 µg·h/mL and the “Approximate t1/2” value [4, 6] was 221 h. The Cmax [4, 6] was 11700 ng/mL, the AUClast [4, 7] was 7500 µg·h/mL and the Cmax [4, 7] was 46700 ng/mL. For the same molecule, the AUClast [4, 8] was 32300 µg·h/mL, the Cmax [4, 8] was 130000 ng/mL and the AUClast ([4]; Total antibody, 0.3 mg/kg i.v.) was 1120 µg·h/mL. For the same molecule, the “Approximate t1/2” value ([4]; Total antibody, 0.3 mg/kg i.v.) was 207 h, the Cmax ([4]; Total antibody, 0.3 mg/kg i.v.) was 3860 ng/mL and the AUClast ([4]; Total antibody, 1 mg/kg i.v.) was 3250 µg·h/mL. The Cmax ([4]; Total antibody, 1 mg/kg i.v.) was 11400 ng/mL, the AUClast ([4]; Total antibody, 3 mg/kg i.v.) was 11200 µg·h/mL and the Cmax ([4]; Total antibody, 3 mg/kg i.v.) was 73200 ng/mL. For the same molecule, the AUClast ([4]; Total antibody, 10 mg/kg i.v.) was 41500 µg·h/mL and the Cmax ([4]; Total antibody, 10 mg/kg i.v.) was 181000 ng/mL.
